# Data published in publication PMC4336329 (PLoS ONE, 2015).
# Hit rate of the full screen: of about 310,000 compounds, about 14,000 (4.5%) showed an effect of 50% or more. Effects have a minus sign here. This is one part of the list.
# Target: human ether-à-go-go-related gene (hERG) potassium channel (human, UniProt Q12809)
# Test: primary screen, population patch clamp on CHO cells stably expressing hERG
# 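Also: peak tail current of the secondary pulse compared with the same well before compound.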
# human ether-à-go-go-related gene (hERG) potassium channel, sequence (Q12809 whole entry, looked up): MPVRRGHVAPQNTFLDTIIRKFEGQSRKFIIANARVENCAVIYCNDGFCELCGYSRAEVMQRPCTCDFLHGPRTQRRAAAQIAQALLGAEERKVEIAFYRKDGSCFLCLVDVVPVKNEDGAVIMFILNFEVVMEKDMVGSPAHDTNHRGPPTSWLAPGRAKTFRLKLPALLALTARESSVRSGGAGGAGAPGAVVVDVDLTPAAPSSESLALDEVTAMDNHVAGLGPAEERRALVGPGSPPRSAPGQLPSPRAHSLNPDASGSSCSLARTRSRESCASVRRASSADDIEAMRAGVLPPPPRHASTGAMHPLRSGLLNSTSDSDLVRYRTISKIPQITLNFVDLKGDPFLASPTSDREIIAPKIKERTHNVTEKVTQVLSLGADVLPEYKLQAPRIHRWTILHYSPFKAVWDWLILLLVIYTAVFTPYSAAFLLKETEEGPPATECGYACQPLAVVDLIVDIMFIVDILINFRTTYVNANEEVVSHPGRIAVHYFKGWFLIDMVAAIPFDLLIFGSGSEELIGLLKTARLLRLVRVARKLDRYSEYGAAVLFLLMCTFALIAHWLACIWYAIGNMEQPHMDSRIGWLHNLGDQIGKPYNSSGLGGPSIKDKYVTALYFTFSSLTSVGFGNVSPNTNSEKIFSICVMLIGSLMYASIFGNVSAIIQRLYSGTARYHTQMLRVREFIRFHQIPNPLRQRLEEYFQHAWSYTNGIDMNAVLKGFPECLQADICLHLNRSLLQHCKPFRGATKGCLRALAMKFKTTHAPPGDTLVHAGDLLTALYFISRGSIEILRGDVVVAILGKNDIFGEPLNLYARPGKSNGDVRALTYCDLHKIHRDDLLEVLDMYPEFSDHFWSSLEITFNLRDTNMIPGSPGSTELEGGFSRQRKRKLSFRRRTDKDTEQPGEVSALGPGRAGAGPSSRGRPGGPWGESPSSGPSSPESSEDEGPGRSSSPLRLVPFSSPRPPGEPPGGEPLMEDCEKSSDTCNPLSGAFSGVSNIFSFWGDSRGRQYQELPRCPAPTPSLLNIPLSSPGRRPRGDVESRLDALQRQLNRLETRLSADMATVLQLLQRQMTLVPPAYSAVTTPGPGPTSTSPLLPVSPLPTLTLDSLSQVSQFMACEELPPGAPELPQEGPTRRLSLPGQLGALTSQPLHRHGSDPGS
row,Compound,"hERG current change (%, negative = inhibition) at 10uM"
1,CC(C(=O)[O-])c1ccc(CC2CCCC2=O)cc1.[Na+] (centres unmarked),10.6%
2,O=C(Nc1ccc2c(c1)OCCO2)C1CCCN(S(=O)(=O)Cc2ccccc2)C1 (centres unmarked),-11%
3,COc1ccc2[nH]c3c(c2c1)CCn1c-3nc2ccccc2c1=O,-4.14%
4,COc1ccc(N(C(=O)c2cccnc2)S(=O)(=O)c2ccc3c4c(cccc24)C(=O)N3C)cc1,17.7%
5,CCOC(=O)CN(C(=O)COc1ccc2c(C)cc(=O)oc2c1)c1ccc(OCC)cc1,-2.79%
6,COc1ccc(/C=C2\CCCc3c2nc2ccccc2c3C(=O)O)cc1OC,-3.08%
7,Cc1ccc(NC(=O)C2(c3ccccc3)CCOCC2)c([N+](=O)[O-])c1,-22.5%
8,COc1cc(C(=O)NCCc2ccc(F)cc2)ccc1OCC(=O)N1CCOCC1,-6.63%
9,O=C(O)C1Cc2ccccc2CN1C(=O)CSc1nnc2ccccn12 (centres unmarked),5.9%
10,O=S(=O)(c1ccccc1)N1CC=C(c2ccccc2)CC1,10.2%
11,Cn1c(SCC(=O)c2c(N)n(C)c(=O)n(C)c2=O)nnc1-c1ccccc1F,23.7%
12,CC(C)c1nnc(SCC(=O)NC(C)(C)C)n1C,10.9%
13,CCCCC(C(=O)NCCC(C)C)N(CCCN1CCOCC1)C(=O)c1snc(C(N)=O)c1N (centres unmarked),-32.1%
14,CCOc1ccccc1C(=O)Nc1cc(OC)ccc1OC,-3.8%
15,CCOc1ccc(N2C(=O)c3ccc(C(=O)OCC(=O)N(CC)C4CCS(=O)(=O)C4)cc3C2=O)cc1 (centres unmarked),-22.3%
16,Cc1nnc2n(c1=O)C(CS(=O)(=O)c1ccccc1)CS2 (centres unmarked),-7.5%
17,Cc1ccc[n+](CC(=O)c2ccc(Cl)cc2)c1.[Cl-],8.07%
18,CCCC(=O)N1CCN(c2ccc([N+](=O)[O-])c(NC(C)c3ccccc3)c2)CC1 (centres unmarked),-8.07%
19,O=C1c2ccccc2-c2c1cccc2C(=O)N1CCCCCC1,0.506%

row,Compound,"hERG current change (%, negative = inhibition) at 10uM"
1,CCc1ccc2[nH]c(=O)c(CN(CCCN3CCOCC3)C(=O)Nc3ccc(F)cc3)cc2c1,-68.1%
2,Cc1ccc2scc(CN3CCCC3)c2c1.Cl,-12.9%
3,Cc1ccc(CSc2nc(N)cc(N)n2)cc1,17.8%
4,CC(C)Cn1c(-c2cccnc2)nc2c1c(=O)[nH]c(=O)n2CC(C)C,0.503%
5,Cc1ccc2nc(C3CCN(CC(=O)N4CCCCCC4)CC3)[nH]c2c1,-22.2%
6,Cc1ccccc1-c1nnc(SCC(=O)NCc2ccc3c(c2)OCO3)n1C,-8.1%
7,CC/C(=N/N=C(\CC)c1ccccc1)c1ccccc1,5.16%
8,Cc1nc(NC(=O)CSc2nnc(Cn3nnc4ccccc43)n2C)sc1C,0.783%
9,CCOC(=O)CCNC(=O)Nc1cc2nc(C)n(Cc3cccc(Cl)c3)c2nc1C,4.33%
10,CC(C(=O)NC1CCCc2ccccc21)N1CCN(Cc2ccc3c(c2)OCO3)CC1 (centres unmarked),-51.9%
11,CCOC(=O)Cc1csc(NC(=S)NC(=O)c2ccc(Cl)cc2)n1,14.6%
12,O=C(CNC(=O)C1CCCCC1)OCC(=O)c1ccc(Cl)s1,15.7%
13,Cc1ccc(-n2c(Cc3cccs3)nnc2SCC(=O)OC(C)C)cc1,-24.7%
14,O=C(CC1C(=O)NCCN1Cc1ccc(F)cc1)NCCCn1cccn1 (centres unmarked),-31.9%
15,COc1ccc(C(=O)N/N=C/c2ccc(OC)c(COc3ccc(F)cc3)c2)cc1,-35.2%
16,O=C(CCN1CCCCC1)NNC(=O)C12CC3CC(CC(C3)C1)C2,41.3%
17,CC1=C/C(=C(\c2cc(C)c(O)c(Br)c2)c2ccccc2S(=O)(=O)O)C=C(Br)C1=O,26.7%
18,Cc1cc(Br)c(OCc2ccc(C(=O)N/N=C/c3ccc[nH]3)cc2)c(Br)c1,14.7%
19,COc1ccc(Nc2nc(-c3ccccc3O)nc3ccccc23)cc1,12.5%

row,Compound,"hERG current change (%, negative = inhibition) at 10uM"
1,CCn1cc(Br)c(C(=O)Nc2ccc(OC)cc2)n1,3.21%
2,O=C(Cc1nnc(NC(=O)Nc2ccccc2)s1)Nc1ccccc1,16.5%
3,O=C(CSc1ccc2ccccc2c1)N1CCN(c2ccc(O)cc2)CC1,-28.2%
4,O=C(OCC(=O)N1CCCC1)c1cc(F)c(F)cc1Cl,13%
5,CCn1c(N)c(C(=O)NCc2ccc3c(c2)OCO3)sc1=S,20.6%
6,COc1ccc(NC(=O)C2COc3ccccc3O2)cc1 (centres unmarked),-5.43%
7,O=C(COc1ccc(Cl)cc1Cl)c1ccc[nH]1,-6.79%
8,CC(C)(C)n1ncc2c(=O)n(CC(=O)Nc3ccc4c(c3)OCCO4)cnc21,2%
9,CCN(CC)S(=O)(=O)c1ccc(C)c(NC(=S)N2CCN(c3ccccn3)CC2)c1,-48.3%
10,CN(C)CC(O)COC(c1ccc(Cl)cc1)c1ccc(Cl)cc1 (centres unmarked),-75.8%
11,Cc1ccc(N2CCN(C(=O)N3CCOCC3)CC2)cc1C,9.72%
12,CN(C)CCn1c(=O)n(-c2cccc(Cl)c2)c(=O)c2c3c(sc21)CCCCC3,-20.7%
13,CCC(Sc1nc2ccccc2c(=O)n1CCN1CCOCC1)C(=O)NCc1cccnc1 (centres unmarked),-37%
14,O=C(O)c1ccc(-c2noc(-c3ccccc3Cl)n2)cc1,8.88%
15,CCCCN1C(=S)NC[C@@H]1c1ccccc1,11%
16,CC(C)c1ccc(/C=N/NC(=O)CN(c2cccc(Cl)c2Cl)S(C)(=O)=O)cc1,16.5%
17,COc1cccc(C(=O)Nc2ccc3[nH]ncc3c2)c1,-23.6%
18,COc1ccc(CCNC(=O)NC(C(F)(F)F)C(F)(F)F)cc1OC,-0.421%
